Measurements published in the supplement of paper PMC3334620.
The full ranking holds about 33,000 sequences; the median of “E-score (-0.5 to 0.5)” is about -0.016, and the highest 2% start at about 0.31. The list shows a part of the results.

These sequences were tested against Cst6 (UniProt P40535) (assay: PBM E-score (8-mer binding enrichment) (E-score (-0.5 to 0.5)); higher = stronger / more preferred TF binding; most listed sequences are background and not binding sites). Settings: protein concentration: 200 nM; construct: GST-DNA-binding domain.
In short: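 PURExpress in vitro transcription/translation supplied GST-tagged yeast transcription factors, either full-length or DNA-binding domain. Applied at about 100-200 nM to universal all-10-mer Agilent arrays double-stranded by primer extension, the bound protein was detected with fluorescent anti-GST. E-scores, modified Wilcoxon-Mann-Whitney statistics, were given by the Universal PBM Analysis Suite to ungapped eight-base words pooled with their reverse complements after masliner normalisation.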

Sequence | PBM E-score
GGCCTGTA | -0.336
GTGGGGAA | 0.134
AAGGCCAT | -0.04
CTGCGCAC | -0.176
GTGTGTAA | 0.228
AGAACCAC | -0.112
ACGATCGT | 0.0108
CAACTTTA | 0.255
GAAACGGC | 0.282
CCAAGCAC | -0.0642
GCCCGAGA | -0.163
GATCACAA | 0.143
ATATACAA | 0.221
TATCAAAA | 0.14
ACTACATC | 0.189
CTCGTCAC | 0.349
GCTAAGCA | -0.094
CGTTGTAA | 0.0823
ACCCTGGC | -0.116
GTAAGATA | 0.196
ATATGGTA | 0.115
AACGTAGT | 0.133
CACATTGA | 0.141
GGACGAAC | -0.0196
CCGAATAC | 0.118

Sequence | PBM E-score
AAATAATG | 0.312
ACCGCGTC | 0.149
TATCGTAA | 0.285
AAAAGCAG | 0.0567
GGTGATAC | -0.0477
ATTAGCAA | 0.209
AAAGGTTA | -0.0675
ACCGCCGC | 0.127
CTAACCTC | -0.107
GAGGCCCC | -0.334
AGGCCCAT | -0.231
AAAGGAAC | 0.0656
GCGCCCAA | -0.0825
TCTATAGA | 0.0271
CCGAGAGC | -0.227
GCATGGCA | 0.103
CACCGCAC | -0.106
GCGAAACC | 0.0382
ACGGGTAA | -0.0372
CAGCTTGG | -0.0785
CATGAACG | 0.0345
AGTCTCAC | -0.0416
GGGGGCGA | -0.328
CTGCGTAC | -0.171
CCCAAGCC | -0.241

Sequence | PBM E-score
AATCGATT | 0.0818
CAGCCACA | -0.0939
CTGGCACC | -0.256
CCAGATGA | 0.131
TAGGTCCA | -0.114
TATCTTAA | 0.17
ATTATCAC | 0.271
AATACGTA | 0.344
ATAAGGAC | 0.0867
CAACGGTA | -0.141
ACACGTGC | -0.0137
ACGGGAGC | -0.124
CACAGCAG | 0.00781
ACCAAGGC | -0.181
CGCAAACG | 0.0433
CAAACCGG | -0.149
CGGCGCTA | 0.147
GCAGATGA | 0.0159
CCTATGTA | -0.102
AGCAGGTA | -0.133
GTATAGAC | -0.0367
AGGGTAAC | -0.204
CGATGAGA | -0.048
ATTAAATA | 0.267
ATACAGGC | -0.121

Sequence | PBM E-score
CCTGCAAC | -0.141
ATTATCAG | 0.125
AGATGTAC | -0.136
ACCAGGTC | -0.218
AGACGAAC | 0.0131
CTCTACAC | -0.225
CATGTGGA | -0.0382
ATCACACC | 0.0827
GGGCTCAC | -0.19
ACGAATCT | 0.09
GCCACAAA | 0.0529
CAGACCGA | -0.166
CTTGATCA | 0.126
CGATTCAA | 0.024
GCTCTGAA | -0.0691
ATCCGGGA | -0.225
ATAGTCAC | 0.194
AGTGTCCG | -0.0931
AGGATATC | -0.0519
AAGGTCCC | -0.148
ACGGTAAC | 0.21
ACAGGTTC | -0.245
CGATACCG | -0.274
AAGTAGGA | 0.0475
CCCATCGA | 0.0183

Sequence | PBM E-score
GTAAGTGA | 0.234
CGATATGA | 0.156
ACTTGCTA | -0.191
CATTAAGA | 0.0481
AGCAGCCC | -0.244
ACATAAAG | 0.0758
GGGCTCTA | -0.184
TATGCAGA | -0.064
ATGCACAG | -0.0515
AAAACAGG | -0.159
CAGTCAAC | -0.143
CAGTTTTC | 0.18
AGCCTGAG | -0.117
AGACAACC | -0.0433
AATGTCAA | 0.102
GGTCGGAA | -0.135
AGGACGTA | -0.126
ATGAGTCG | -0.125
GACAGCTA | -0.0871
ATTCTGGG | -0.152
CCCGCGGA | -0.0408
AAACCAAG | 0.0861
CATACTCC | 0.0426
AGTTGCTG | -0.0492
AAGATACG | 0.147

Sequence | PBM E-score
CGCATAAG | 0.102
GCTGAAAC | -0.0238
AATGCTGG | -0.129
AGACTCGC | -0.273
ACGGGGCA | 0.0661
AATTACTA | 0.143
CATATTAC | 0.261
AATTGCTA | 0.00596
CTCCTCCC | -0.358
ACCCCCGT | -0.275
CCTTACGC | 0.0971
GATCGTTA | -0.128
CCAGGCGA | -0.317
ATCAGCTG | 0.128
CTTCCGAA | -0.11
TCCTAAAA | 0.0266
CACCAGAA | -0.0422
AGGACACA | 0.211
GATGACGA | 0.463
CGGCCACC | -0.0849
TAACCCCA | -0.302
GCATCGAC | 0.0107
CCAATGAC | 0.314
CCCTTGCA | -0.275
GGAGACGA | -0.0641

Sequence | PBM E-score
CATACGCG | 0.034
GCCATGAA | -0.0843
ATGCGGCC | 0.0608
GTCAGACA | 0.0345
ATACCAAC | 0.118
AATTGCTG | 0.226
ACACGGCT | 0.266
GATCCGGA | -0.169
ATAGCATC | 0.107
AATTTCGC | -0.0459
ATACGGCG | 0.36
ATATTTAG | 0.221
TGGGGCAA | -0.247
AGGAATAC | -0.145
CGGGTATC | -0.098
GCGGTCGA | -0.0118
ATACACAG | -0.173
GGGTTATA | -0.167
CATAAAGC | -0.103
CGCCAGAA | 0.00857
CATTCCAA | 0.0936
TTAGGAAA | 0.106
